Some of these densities may be calculated back from excess volumes.

Usually mass density stands for the mass of a sample divided by its volume.

A short description of the data set: xn = mol fraction of the nth substance listed. To be noted: 313.15 K, 101 kPa.

In the case of `CCCn1cc[n+](C)c1.O=S(=O)([N-]S(=O)(=O)C(F)(F)F)C(F)(F)F` + CCO, the mass density runs as follows: (x2 = 0.0504) 1451.2 kg/m3; (x2 = 0.1252) 1438 kg/m3; (x2 = 0.2309) 1417.4 kg/m3; (x2 = 0.3429) 1390 kg/m3; (x2 = 0.5636) 1312.1 kg/m3; (x2 = 0.6495) 1265.8 kg/m3. For the same compound, the mass density runs as follows: (x2 = 0.7497) 1194.3 kg/m3; (x2 = 0.839) 1101.4 kg/m3.

Turning to `CCCCCC[n+]1ccn(C)c1.O=S(=O)([O-])C(F)(F)F` + CCO, the mass density runs as follows: (x2 = 0.0525) 1219.8 kg/m3; (x2 = 0.0947) 1214.6 kg/m3; (x2 = 0.3802) 1170.7 kg/m3; (x2 = 0.4906) 1144.9 kg/m3; (x2 = 0.6982) 1071.5 kg/m3; (x2 = 0.8939) 931.5 kg/m3.

The record behind these values is a compilation of properties of binary mixtures (doi:10.1016/j.fluid.2012.10.004).
